# ± gives the standard deviation of the averaged measurements. This is one part of the list.
# System: PfAP2-EXP AP2 domain (GST-tagged)
# Test: gcPBM binding intensity (ln(normalized median fluorescence intensity)); higher = stronger DNA binding
# Outline: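 The highest Masliner-normalised natural-log median intensity across replicate spots of either probe orientation is reported as binding intensity. GST-tagged P. falciparum DNA-binding domains expressed in E. coli were applied for 1 h to an Agilent 4 × 180k array of primer-extended double-stranded 36-bp intergenic genomic probes plus negative controls, and bound protein was detected with Alexa488 anti-GST antibody and scanned at 488 nm.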
row,Sequence,gcPBM binding intensity (ln)
1,ATTGTTTTATATAGAACACACATAAAAATATATATG [CACACA_site1193],8.44 ± 0.38
2,TAATTTTTTTTAATAACACACATATATATATATATA [CACACA_site813],10.47 ± 0.042
3,AAAGGATGTAATATAAACATATATATGTATATATAT [TGCATGCA_negctrl_site347],8.55 ± 0.27
4,ATAAAATGAAATATATATGTGTATGCTTAACTTGTT [CACACA_negctrl_site431],8.46 ± 0.38
5,TAATATTCCTTTTTAACACACATATGAACAAATAAA [CACACA_site153],8.57 ± 0.49
6,TTAAATAATATTAGCCGTACAATTTAAAGATAATAA [XGTACX_site8503],8.52 ± 0.33
7,AATTATAGCTGTATCTGTACGCATTTATTTATAGAC [XGTACX_site5959],8.65 ± 0.21
8,GAAAGGGCAGGAACTATTAATACACTGATCGATAAG [CACACA_negctrl_site1458],8.63 ± 0.48
9,AAAAAAAAGTATGATTCTAAATTTATGTATATATAA [GTGCAC_negctrl_site669],8.22 ± 0.45
10,TTTAATACTTTATATGCATGCAGAGAAAAATGCTTG [TGCATGCA_site286],9.835 ± 0.092
11,ATGAATATAATGAAGTGTACATAAAAATAATAAATA [XGTACX_site2481],8.97 ± 0.42
12,TTTGAAATATATTTAGTGCATATATATTGATTATAA [GTGCAC_site9604],8.43 ± 0.099
13,ATACATATAGGATGCACACATAATTCAAATACAATA [CACACA_site651],8.62 ± 0.31
14,ATCTAGTACATACATACACACAACAATGTTATGAGA [CACACA_site3989],8.52 ± 0.36
15,CAATTTTGCCCTTCCTGTACATATATTGAAAAATAT [XGTACX_site6388],8.6 ± 0.25
16,TAAATATTTATAAACACACAAATATTTATATTTATA [CACACA_site6166],8.08 ± 0.3
17,AGGGACATATATATCACACACAAAAATTAGTCCCTT [CACACA_site2778],8.68 ± 0.49
18,TTTATTTATTAATACACACACACACGCCCACAAAAT [CACACA_site6253],9.21 ± 0.42
19,AAATAGAGAAATACAAGTACATATCAAACCAATCTA [XGTACX_site2756],8.52 ± 0.42
20,CTTATACATAAATTTTGTACACACAAAAAAAAAAAA [XGTACX_site2665],8.5 ± 0.55
21,TAAAAATATAGGTATACACACATATAAATATAAATA [CACACA_site7785],8.54 ± 0.4
22,ATAAATATAAATATATGTACATATATATATATATAT [XGTACX_site7433],10.2 ± 0.15

row,Sequence,gcPBM binding intensity (ln)
1,GATTTTAAAATAATTACACACTTGATTATGTCCAAA [CACACA_site3491],8.46 ± 0.4
2,AAGACACAAAAACACACACACATACATACATACATA [CACACA_site454],8.77 ± 0.39
3,TATGTTGATGATGATAGTACATATGAGTTCAAAAAA [XGTACX_site7712],8.57 ± 0.34
4,TGTTTTGTTGTGTATTGTACTAATATAAATATATAA [XGTACX_site1852],8.78 ± 0.46
5,TTTTATGATTGACACACACACAAAAAAAAAAAAAAA [CACACA_site7860],8.2 ± 0.43
6,TAAAAAAACGCACTCGTACACACATATTTTCTTTCT [CACACA_site3090],8.665 ± 0.049
7,TATATTTGGAAAACATGTACATATAACAATATGTAA [XGTACX_site324],8.61 ± 0.38
8,AATAAAAAAGGAAACAAATTAATATATATATATATA [CACACA_negctrl_site467],10 ± 0.38
9,CGTACATAATTTTAATCACACACAAACAAACACATA [CACACA_site7947],8.88 ± 0.56
10,AAAAAAAGAAATAATAAAAAATATATATATATATAT [GTGCAC_negctrl_site702],10.1 ± 0.44
11,ATGTTGTCAAAAAAATGTACTTACATAATATTTTCC [XGTACX_site1732],8.37 ± 0.29
12,TATAAATACTTATATGTACACACATATAGATATATA [CACACA_site8819],8.27 ± 0.18
13,CGCATACACCAACACACACACACATATATATATATA [CACACA_site635],10.2 ± 0.21
14,ATCTAATATATATTCTGTACGTAATTAAAACCACAA [XGTACX_site3152],8.74 ± 0.3
15,TAGATCTTATTTACAAGTACATATATACGATTCATT [XGTACX_site7578],8.52 ± 0.35
16,AGAAGTCTGTAATGATGTACTGGAAAAATATAAATA [XGTACX_site8148],8.47 ± 0.36
17,TTTTTTTTTTAAAAAACACACACCTAAACAAGATAT [CACACA_site875],8.84 ± 0.37
18,ATATATATATATATTTGTACATATATATAATTTTTC [XGTACX_site7460],9.98 ± 0.18
19,AAAATAAAAAAAAAAGGTACACAAAAAGATGGACTG [XGTACX_site2650],8.71 ± 0.52
20,TATAATTGTCTTCACACACACATATATATATATATA [CACACA_site2743],10.2 ± 0.29
21,AAAAAACGACCTTACGCACACATTATTCTAGTCTAT [CACACA_site2349],8.74 ± 0.3
22,TCAAATTATATGAGTGGTACACATGTAATATTTTTA [XGTACX_site6518],8.29 ± 0.28

# From the supplement of paper PMC11417369
